# Assay results: the supplement of paper PMC8728848
# This is one part of the list.
# B1: Lmo1413 (Listeria monocytogenes), Q8Y783 (protein)
# chain: MKHAKKSLFTFIIFMTILSITFNPFSAKAAPLMLNLPAPQVDQLYIGDDYITGKLQQEVPMHYPGNAAYVLFNNKQYNITDYTVENDVNFRLKLPKTLEAGDTLNYFTITGNVLDPVAYPGQESYKLAGPFSPIEKANIQVNYVDETNQTLATSDTLSGKLGETYTTSPKAIDGYQVKETPTNATGTYTTNTETIQINYVYEKTAVEGANVSVEYINEATNESIAPTETLSGKIGTTFQAEVKEIDGYELSQVPSNQSGTYTDQTQSVIFKYKKITTPDEVAKDVTVTYKDTKGNQLADPVILKGDIGSTFETEAKSFKGYKLTKTPSNHSSVFTSDSQEVEYVYSKDDAVITPPVTPVNPDKPIINPVKPVNPATSTVPNKNISKKNTTKTVNQTGKTSTALQLPKTGDSENNLPLIIGVSLLISGVYIFTTRRKRVK
# Columns and labels:
# Test in all cases: glycan array binding signal (z-score within array); higher = stronger binding
# Settings in all cases: glycan notation: IUPAC condensed, linker removed
# Fuc(a1-2)Gal = target: Fuc(a1-2)Gal
# Method in brief: (§1)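 Glycan array data were curated from 3228 arrays in the Consortium for Functional Glycomics database and kept only where the protein sequence was available. Glycan names were converted to IUPAC-condensed notation, and columns mapping to the same glycan were averaged. The binding signal is a within-array Z-score, averaged across arrays of the same protein sequence at different concentrations or buffers and across linkers. Negative Z-scores can be read as non-binding.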
# Fuc(a1-2)Gal(b1-3)GalNAc = target: Fuc(a1-2)Gal(b1-3)GalNAc
# Method in brief: as §1
# [1] = target: Fuc(a1-2)Gal(b1-3)GalNAc(a1-3)[Fuc(a1-2)]Gal(b1-4)Glc
# Method in brief: as §1
# [2] = target: Fuc(a1-2)Gal(b1-3)GalNAc(a1-3)[Fuc(a1-2)]Gal(b1-4)GlcNAc
# Method in brief: as §1
# [3] = target: Fuc(a1-2)Gal(b1-3)GalNAc(b1-3)Gal
# Method in brief: as §1
# [4] = target: Fuc(a1-2)Gal(b1-3)GalNAc(b1-3)Gal(a1-4)Gal(b1-4)Glc
# Method in brief: as §1
# [5] = target: Fuc(a1-2)Gal(b1-3)GalNAc(b1-4)[Neu5Ac(a2-3)]Gal(b1-4)Glc
# Method in brief: as §1
# Fuc(a1-2)Gal(b1-3)GlcNAc = target: Fuc(a1-2)Gal(b1-3)GlcNAc
# Method in brief: as §1
# [6] = target: Fuc(a1-2)Gal(b1-3)GlcNAc(b1-2)Man(a1-3)[Fuc(a1-2)Gal(b1-3)GlcNAc(b1-2)Man(a1-6)]Man(b1-4)GlcNAc(b1-4)GlcNAc
# Method in brief: as §1
# [7] = target: Fuc(a1-2)Gal(b1-3)GlcNAc(b1-3)Gal(b1-4)Glc
# Method in brief: as §1
# [8] = target: Fuc(a1-2)Gal(b1-3)GlcNAc(b1-3)[Fuc(a1-3)[Gal(b1-4)]GlcNAc(b1-6)]Gal(b1-4)Glc
# Method in brief: as §1
# [9] = target: Fuc(a1-2)Gal(b1-3)[Fuc(a1-4)]GlcNAc
# Method in brief: as §1
# [10] = target: Fuc(a1-2)Gal(b1-3)[Fuc(a1-4)]GlcNAc(b1-2)Man(a1-3)[Fuc(a1-2)Gal(b1-3)[Fuc(a1-4)]GlcNAc(b1-2)Man(a1-6)]Man(b1-4)GlcNAc(b1-4)GlcNAc
# Method in brief: as §1
# [11] = target: Fuc(a1-2)Gal(b1-3)[Fuc(a1-4)]GlcNAc(b1-3)[Fuc(a1-3)[Gal(b1-4)]GlcNAc(b1-6)]Gal(b1-4)Glc
# Method in brief: as §1
# [12] = target: Fuc(a1-2)Gal(b1-3)[Fuc(a1-4)]GlcNAc(b1-3)[Gal(b1-4)GlcNAc(b1-6)]Gal(b1-4)Glc
# Method in brief: as §1
# Fuc(a1-2)Gal(b1-4)Glc = target: Fuc(a1-2)Gal(b1-4)Glc
# Method in brief: as §1
# Fuc(a1-2)Gal(b1-4)Glc6S = target: Fuc(a1-2)Gal(b1-4)Glc6S
# Method in brief: as §1
# Fuc(a1-2)Gal(b1-4)GlcNAc = target: Fuc(a1-2)Gal(b1-4)GlcNAc
# Method in brief: as §1
# [13] = target: Fuc(a1-2)Gal(b1-4)GlcNAc(b1-2)Man(a1-3)[Fuc(a1-2)Gal(b1-4)GlcNAc(b1-2)Man(a1-6)]Man(b1-4)GlcNAc(b1-4)GlcNAc
# Method in brief: as §1
# [14] = target: Fuc(a1-2)Gal(b1-4)GlcNAc(b1-3)Gal(b1-4)GlcNAc
# Method in brief: as §1
# [15] = target: Fuc(a1-2)Gal(b1-4)GlcNAc(b1-3)Gal(b1-4)GlcNAc(b1-3)Gal(b1-4)GlcNAc
# Method in brief: as §1
# [16] = target: Fuc(a1-2)Gal(b1-4)GlcNAc(b1-3)GalNAc
# Method in brief: as §1
# [17] = target: Fuc(a1-2)Gal(b1-4)GlcNAc6S
# Method in brief: as §1
# [18] = target: Fuc(a1-2)Gal(b1-4)[Fuc(a1-3)]GlcNAc
# Method in brief: as §1
# [19] = target: Fuc(a1-2)Gal(b1-4)[Fuc(a1-3)]GlcNAc(b1-2)Man(a1-3)[Fuc(a1-2)Gal(b1-4)[Fuc(a1-3)]GlcNAc(b1-2)Man(a1-6)]Man(b1-4)GlcNAc(b1-4)GlcNAc
# Method in brief: as §1
# [20] = target: Fuc(a1-2)Gal(b1-4)[Fuc(a1-3)]GlcNAc(b1-3)Gal(b1-4)[Fuc(a1-3)]GlcNAc
# Method in brief: as §1
# [21] = target: Fuc(a1-2)Gal(b1-4)[Fuc(a1-3)]GlcNAc(b1-3)Gal(b1-4)[Fuc(a1-3)]GlcNAc(b1-3)Gal(b1-4)[Fuc(a1-3)]GlcNAc
# Method in brief: as §1
# Fuc(a1-2)Gal6S(b1-4)Glc = target: Fuc(a1-2)Gal6S(b1-4)Glc
# Method in brief: as §1
# [22] = target: Fuc(a1-2)Gal6S(b1-4)Glc6S
# Method in brief: as §1
# [23] = target: Fuc(a1-2)Gal6S(b1-4)GlcNAc
# Method in brief: as §1
# Fuc(a1-2)[Gal(a1-3)]Gal = target: Fuc(a1-2)[Gal(a1-3)]Gal
# Method in brief: as §1
# [24] = target: Fuc(a1-2)[Gal(a1-3)]Gal(b1-3)GlcNAc
# Method in brief: as §1
# [25] = target: Fuc(a1-2)[Gal(a1-3)]Gal(b1-3)GlcNAc(b1-2)Man(a1-3)[Fuc(a1-2)[Gal(a1-3)]Gal(b1-3)GlcNAc(b1-2)Man(a1-6)]Man(b1-4)GlcNAc(b1-4)GlcNAc
# Method in brief: as §1
# [26] = target: Fuc(a1-2)[Gal(a1-3)]Gal(b1-4)Glc
# Method in brief: as §1
# [27] = target: Fuc(a1-2)[Gal(a1-3)]Gal(b1-4)GlcNAc
# Method in brief: as §1
# [28] = target: Fuc(a1-2)[Gal(a1-3)]Gal(b1-4)GlcNAc(b1-2)Man(a1-3)[Fuc(a1-2)[Gal(a1-3)]Gal(b1-4)GlcNAc(b1-2)Man(a1-6)]Man(b1-4)GlcNAc(b1-4)GlcNAc
# Method in brief: as §1
# [29] = target: Fuc(a1-2)[Gal(a1-3)]Gal(b1-4)[Fuc(a1-3)]GlcNAc
# Method in brief: as §1
binder,measurement,setting,value
B1,glycan array binding signal (z-score),Fuc(a1-2)Gal,-0.003
same,glycan array binding signal (z-score),Fuc(a1-2)Gal(b1-3)GalNAc,-0.202
same,glycan array binding signal (z-score),[1],-0.22
same,glycan array binding signal (z-score),[2],-0.141
same,glycan array binding signal (z-score),[3],-0.219
same,glycan array binding signal (z-score),[4],-0.201
same,glycan array binding signal (z-score),[5],-0.218
same,glycan array binding signal (z-score),Fuc(a1-2)Gal(b1-3)GlcNAc,-0.177
same,glycan array binding signal (z-score),[6],0.116
same,glycan array binding signal (z-score),[7],0.045
same,glycan array binding signal (z-score),[8],-0.219
same,glycan array binding signal (z-score),[9],-0.221
same,glycan array binding signal (z-score),[10],0.547
same,glycan array binding signal (z-score),[11],-0.167
same,glycan array binding signal (z-score),[12],-0.22
same,glycan array binding signal (z-score),Fuc(a1-2)Gal(b1-4)Glc,-0.192
same,glycan array binding signal (z-score),Fuc(a1-2)Gal(b1-4)Glc6S,-0.167
same,glycan array binding signal (z-score),Fuc(a1-2)Gal(b1-4)GlcNAc,-0.158
same,glycan array binding signal (z-score),[13],-0.115
same,glycan array binding signal (z-score),[14],-0.153
same,glycan array binding signal (z-score),[15],0.015
same,glycan array binding signal (z-score),[16],-0.228
same,glycan array binding signal (z-score),[17],-0.135
same,glycan array binding signal (z-score),[18],-0.214
same,glycan array binding signal (z-score),[19],0.083
same,glycan array binding signal (z-score),[20],-0.249
same,glycan array binding signal (z-score),[21],-0.181
same,glycan array binding signal (z-score),Fuc(a1-2)Gal6S(b1-4)Glc,-0.165
same,glycan array binding signal (z-score),[22],-0.193
same,glycan array binding signal (z-score),[23],-0.222
same,glycan array binding signal (z-score),Fuc(a1-2)[Gal(a1-3)]Gal,-0.228
same,glycan array binding signal (z-score),[24],-0.226
same,glycan array binding signal (z-score),[25],-0.164
same,glycan array binding signal (z-score),[26],-0.182
same,glycan array binding signal (z-score),[27],-0.192
same,glycan array binding signal (z-score),[28],-0.156
same,glycan array binding signal (z-score),[29],0.176
